Test results: a compilation of properties of binary mixtures (doi:10.1007/s10765-022-03014-z)
The densities may have been worked out from excess volumes.

Assay: xn = mol fraction of the nth substance listed
Conditions: 101 kPa

CO + CCCC[n+]1ccn(C)c1.O=S(=O)([O-])C(F)(F)F
x1 = 1
Conditions	mass density [kg/m3]
278.15 K	805.5
283.15 K	800.9
293.15 K	791.6
298.15 K	786.9
303.15 K	782.1
333.15 K	752.8

CCCC[n+]1ccn(C)c1.O=S(=O)([O-])C(F)(F)F + CO
Conditions	mass density [kg/m3]
278.15 K, x1 = 0.0034	816
278.15 K, x1 = 0.0127	842.3
278.15 K, x2 = 0.0851	1306
278.15 K, x2 = 0.1553	1298.5
278.15 K, x2 = 0.3213	1276.1
278.15 K, x2 = 0.519	1235.1
278.15 K, x2 = 0.6999	1169.3
278.15 K, x2 = 0.8218	1090.1
278.15 K, x2 = 0.8447	1069.3
278.15 K, x2 = 0.9334	956
278.15 K, x2 = 0.9729	878.1
283.15 K, x1 = 0.0034	811.4
283.15 K, x1 = 0.0069	821.7
283.15 K, x1 = 0.0127	837.7
283.15 K, x2 = 0	1309.8
283.15 K, x2 = 0.1553	1294.4
283.15 K, x2 = 0.3213	1271.9
283.15 K, x2 = 0.519	1230.9
283.15 K, x2 = 0.6999	1164.9
283.15 K, x2 = 0.8218	1085.6
283.15 K, x2 = 0.8447	1064.7
283.15 K, x2 = 0.8739	1034
283.15 K, x2 = 0.9334	951.5
283.15 K, x2 = 0.9729	873.6
293.15 K, x1 = 0.0034	802.1
293.15 K, x1 = 0.0069	812.4
293.15 K, x1 = 0.0127	828.4
293.15 K, x2 = 0.0851	1293.8
293.15 K, x2 = 0.1553	1286.3
293.15 K, x2 = 0.3213	1263.7
293.15 K, x2 = 0.519	1222.4
293.15 K, x2 = 0.6999	1156.2
293.15 K, x2 = 0.8218	1076.6
293.15 K, x2 = 0.8739	1025
293.15 K, x2 = 0.9334	942.4
298.15 K, x1 = 0.0034	797.4
298.15 K, x1 = 0.0127	823.8
298.15 K, x2 = 0	1297.7
298.15 K, x2 = 0.0851	1289.8
298.15 K, x2 = 0.1553	1282.2
298.15 K, x2 = 0.3213	1259.6
298.15 K, x2 = 0.519	1218.3
298.15 K, x2 = 0.6999	1151.9
298.15 K, x2 = 0.8218	1072.2
298.15 K, x2 = 0.8447	1051.3
298.15 K, x2 = 0.8739	1020.5
298.15 K, x2 = 0.9334	937.8
303.15 K, x1 = 0.0127	819.1
303.15 K, x2 = 0	1293.7
303.15 K, x2 = 0.1553	1278.2
303.15 K, x2 = 0.3213	1255.5
303.15 K, x2 = 0.519	1214.1
303.15 K, x2 = 0.6999	1147.7
303.15 K, x2 = 0.8218	1067.8
303.15 K, x2 = 0.8447	1046.8
303.15 K, x2 = 0.8739	1016.1
303.15 K, x2 = 0.9334	933.3
303.15 K, x2 = 0.9729	855.1
313.15 K, x1 = 0.0034	783.2
313.15 K, x1 = 0.0069	793.5
313.15 K, x1 = 0.0127	809.6
313.15 K, x2 = 0.0851	1277.8
313.15 K, x2 = 0.1553	1270.2
313.15 K, x2 = 0.519	1205.8
313.15 K, x2 = 0.6999	1139.1
313.15 K, x2 = 0.8218	1059
313.15 K, x2 = 0.8447	1038
313.15 K, x2 = 0.8739	1007.1
313.15 K, x2 = 0.9334	924
313.15 K, x2 = 0.9729	845.6
333.15 K, x1 = 0.0034	763.6
333.15 K, x2 = 0.0851	1262
333.15 K, x2 = 0.1553	1254.3
333.15 K, x2 = 0.3213	1231.3
333.15 K, x2 = 0.6999	1121.9
333.15 K, x2 = 0.8447	1019.7
333.15 K, x2 = 0.8739	988.8
333.15 K, x2 = 0.9729	826.2
353.15 K, x2 = 0	1254.6
353.15 K, x2 = 0.0851	1246.4
353.15 K, x2 = 0.1553	1238.7
353.15 K, x2 = 0.3213	1215.4
353.15 K, x2 = 0.519	1172.8
353.15 K, x2 = 0.6999	1104.8
373.15 K, x2 = 0	1239.4
373.15 K, x2 = 0.1553	1223.3
373.15 K, x2 = 0.3213	1199.8
393.15 K, x2 = 0	1224.4
393.15 K, x2 = 0.0851	1216
393.15 K, x2 = 0.1553	1208
393.15 K, x2 = 0.3213	1184.1
413.15 K, x2 = 0	1209.6
413.15 K, x2 = 0.0851	1201
413.15 K, x2 = 0.1553	1192.9
